Several values for one entry are separate records, joined by “and”; a condition that tells them apart may be missing. Identical values can stand only once. The list shows a part of the results. The main result of the screen is listed elsewhere. These columns were measured beside it and carry no call. Most of these compounds were active or inconclusive in the main read-out, so they are no random draw. Words in brackets tell the shape of the fitted curve; partial curves, single points and poor fits give uncertain potencies.
Tests used:
[1] = qHTS Assay for Lipid Storage Modulators (AID 1519); conditions: Drosophila S3 cells, BODIPY lipid droplet/cell ratio, laser cytometry, cells loaded with oleic acid
Summary of the method: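 Cells seeded at 5,000 per well were treated with compounds over a concentration series and loaded with oleic acid (400 uM, as added). Lipid droplet fluorescence (488 nm excitation, 500-530 nm channel) was read by laser-scanning cytometry and normalized to 20 uM Triacsin C.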

[2] = qHTS for identification of novel therapeutic agents for treatment of microphthalmiaassociated transcription factor (MiT) renal cell carcinoma (RCC) (AID 1963991); conditions: CellTiter-Glo, 48 h; for z-score: stronger effect = lower value
Summary of the method: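 Three TFE3-fusion RCC cell lines (UOK109, UOK124, UOK145), 500 cells/well, were exposed to the 1912-compound MIPE 4.0 library for 48 hours at 37 C. Viability was read by CellTiter-Glo luminescence, normalised to DMSO (100%) and empty wells (0%), with 11-concentration curve fits.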

[3] = qHTS Assay for Modulators of Human Peripheral Myelin Protein 22 (PMP22) Expression/Activity (AID 1967); conditions: Cell-based PMP22 reporter, dual-color luciferase ratio
Summary of the method: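 MSC80 mouse Schwann cells stably carrying Pmp22 promoter–green click beetle luciferase plus EF-alpha–red luciferase control were dosed for 24h at 37 °C. Dual-colour luminescence was filter-overlap corrected; %Activity came from green/red ratio versus untreated cells.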

[4] = qHTS assay for small molecule antagonists of glucocorticoid receptor signaling (AID 588533); conditions: HeLa MMTV-bla, GRE beta-lactamase ratio, antagonist mode, 18 h; measured here: W530 channel AC50;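 further: cells stimulated with 2 nM dexamethasone as agonist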
[5] = qHTS assay for small molecule antagonists of peroxisome proliferator-activated receptor gamma signaling (AID 588537); conditions: HEK293 PPARg-UAS-bla, beta-lactamase ratio, antagonist mode; measured here: W460 blue channel
Summary of the method: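 Fluorescence at 460 and 530 nm (405 nm excitation) reported beta-lactamase cleavage of CCF4 after 2 h room-temperature loading. HEK293 reporter cells in 1% charcoal/dextran-treated FBS had received compound and rosiglitazone for 16 h.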

[6] = qHTS Assay for Inhibitors of PDE-IV (AID 607); conditions: HEK293 ACTOne CNG channel cells, membrane potential fluorescence; measured here: parental cell counter-screen;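 further: parental cells stimulated with forskolin 10 µM plus RO 20-1724 100 µM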
Summary of the method: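 ACTOne HEK293 cells carry a modified cAMP-gated CNG channel and express endogenous PDE4; plated 1000 cells/well, compounds up to 22.9 uM final. Membrane-potential dye fluorescence (ex 535/em 590) was read; parental cells received 10 uM forskolin + 100 uM RO 20-1724.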

[7] = qHTS Validation Assay to Find Inhibitors of Chronic Active B-Cell Receptor Signaling (AID 485345); conditions: ABC-DLBCL cells, chronic BCR signaling reporter; measured here: CBR control luciferase (viability counter)
Summary of the method: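 TMD8 ABC-DLBCL cells stably carrying doxycycline-inducible IkappaBalpha–green luciferase fusion plus unfused red luciferase; compounds 46 uM to 3 nM, 4 h at 37C with doxycycline. Corrected green/red luminescence ratio normalized to 10 uM MG-132 and basal cell wells; curves fitted.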

[8] = measured here: cell count channel max response
[9] = measured here: cell number channel AC50
[10] = measured here: lipid (BODIPY) channel AC50
[11] = measured here: lipid channel max response
[12] = TFE3-RCC UOK109 viability, measured here: UOK109 Z-AUC
[13] = TFE3-RCC viability, measured here: UOK124 Z-AUC
[14] = TFE3-RCC viability, measured here: UOK124 cell viability
[15] = TFE3-RCC viability, measured here: UOK145 Z-AUC
[16] = TFE3-RCC viability, measured here: UOK145 cell viability
[17] = measured here: red reporter channel AC50, EF-alpha promoter control reporter in MSC80 mouse Schwann cells
[18] = measured here: green reporter channel AC50, mouse Pmp22 promoter in mouse Schwann cells
Tags describe the fitted curve by direction and shape.

Structure (SMILES) | max response [1, 8] | AC50 [1, 9] | AC50 [1, 10] | max response [1, 11] | z-score [2, 12] | z-score [2, 13] | AC50 [2, 14] | z-score [2, 15] | AC50 [2, 16] | AC50 [3, 17] | AC50 [4] | AC50 [5] | AC50 [3, 18] | AC50 [6] | AC50 [7]
CCOC(=O)C1=C(C)NC(=S)NC1c1cccc(O)c1 (centres undefined) | 89% | 12.6 µM [rising, partial curve] | 15.8 µM [rising, partial curve] | 115% | -0.619 | -0.0172 | 0.0418 µM [falling, full curve] | -0.183 | 0.187 µM [falling, full curve] |  |  |  |  |  | 
O=C1c2c(O)cc(O)cc2OC(c2ccc(O)c(O)c2)C1O (centres undefined) | 33.2% | 39.8 µM [rising, single point] | 20 µM [rising, partial curve, poor fit] | 60.3% |  |  |  |  |  | 75.7 µM [falling, single point] |  |  |  |  | 
O=C(Nc1cc(C(=O)Nc2ccc(S(=O)(=O)O)cc2S(=O)(=O)O)cc(C(=O)Nc2ccc(S(=O)(=O)O)cc2S(=O)(=O)O)c1)Nc1cc(C(=O)Nc2ccc(S(=O)(=O)O)cc2S(=O)(=O)O)cc(C(=O)Nc2ccc(S(=O)(=O)O)cc2S(=O)(=O)O)c1 | -54.1% | 8.91 µM [falling, full curve] | 8.91 µM [falling, full curve] | -54.4% |  |  |  |  |  | 95.3 µM [falling, single point] |  |  |  |  | 
COc1ccc([C@@H]2CNC(=O)C2)cc1OC1CCCC1 | 31% and 34.5% and 99.6% | 28.2 µM [rising, single point] and 15.8 µM [rising, partial curve, poor fit] and 39.8 µM [rising, single point] | 31.6 µM [rising, single point] and 28.2 µM [rising, partial curve, poor fit] and 39.8 µM [rising, partial curve, poor fit] | 49.5% and 44.1% and 116% | -0.755 | 0.226 | 37.2 µM [falling, single point] | 0.213 | 5.26 µM [falling, full curve] |  |  |  |  |  | 
CCCC(CCC)C(=O)O | -15.9% | 3.98 µM [falling, partial curve] | 3.98 µM [falling, partial curve, poor fit] | -14.4% | -0.879 | 0.615 |  | -0.427 | 20.9 µM [falling, single point] |  | 891 µM [rising, partial curve, poor fit] | 50.1 µM [rising, single point] |  |  | 
CCCCCCCCCCCCC/C=C/[C@@H](O)[C@@H](N)CO | -30.7% | 0.0112 µM [falling, full curve, poor fit] | 0.0112 µM [falling, full curve, poor fit] | -33.7% |  |  |  |  |  |  |  |  | 26.9 µM [falling, single point] |  | 
Cc1cccc(C#Cc2ccccc2)n1 | 126% | 6.31 µM [rising, partial curve] | 6.31 µM [rising, partial curve] | 168% | 0.894 | 0.629 | 18.7 µM [falling, partial curve, poor fit] | 0.607 |  | 0.478 µM [rising, full curve, poor fit] |  |  | 2.13 µM [rising, full curve] | 0.0251 µM [rising, full curve, poor fit] | 
CC(CCc1ccc(O)cc1)NCCc1ccc(O)c(O)c1 (centres undefined) | -44.5% | 10 µM [falling, partial curve, poor fit] | 10 µM [falling, partial curve, poor fit] | -61.3% | -0.152 | -0.104 |  | 0.661 | 23.5 µM [falling, partial curve, poor fit] | 60.1 µM [falling, partial curve] |  |  | 67.5 µM [falling, partial curve] |  | 
Nc1nc2c(nc(Br)n2C2O[C@H]3COP(=O)(O)O[C@@H]3C2O)c(=O)[nH]1 (some centres undefined) | -91.9% | 39.8 µM [falling, single point] | 39.8 µM [falling, single point] | -93% |  |  |  |  |  | 84.9 µM [falling, single point] |  |  |  |  | 
O=C1N(c2ccccc2)c2ccccc2C1(Cc1ccncc1)Cc1ccncc1 | 94.5% and 8.11% | 3.16 µM [rising, full curve] and 794 nM [falling, full curve, poor fit] | 3.16 µM [rising, full curve] and 794 nM [falling, full curve, poor fit] | 125% and 10.3% | 0.534 | 0.628 |  | 0.586 | 20.9 µM [falling, partial curve, poor fit] |  |  |  |  |  | 18.4 µM [falling, single point]
OC(CN1CCN(c2cccc(Cl)c2)CC1)C(c1ccccc1)c1ccccc1 (centres undefined) | -11.6% | 6.31 µM [falling, single point] | 6.31 µM [falling, single point] | -7.86% | 1.06 | -0.21 | 33.2 µM [falling, single point] | 0.474 | 33.2 µM [falling, partial curve, poor fit] | 67.5 µM [falling, partial curve] |  |  | 67.5 µM [falling, partial curve] |  | 
